Test system: Fpr2^-/- neutrophils
Assay: NADPH-oxidase activity in neutrophils from wild type versus Fpr2-/- mice
Assay type: cell-based
Settings: mouse bone marrow neutrophils (5x10^4); fMIFL 10 nM, fMYFINILTL 50 nM

Substance: fMIFL [reference compound]
- Activity in Fpr2-/- neutrophils compared with WT neutrophils: no difference

From paper PMC5132201, “Formylated MHC Class Ib Binding Peptides Activate Both Human and Mouse Neutrophils Primarily through Formyl Peptide Receptor 1” (PLoS ONE, 2016)
